The shares of active, inactive and inconclusive entries below differ from those in the screen. For part of these data: Potencies of inconclusive entries are doubtful fits and often do not repeat. Activity calls are given as the source filed them. Unless noted, the call rests on the fitted dose curve; in most records, active means well fitted curve in the direction sought with a large enough effect; inconclusive means small, poorly fitted or top-dose-only effect, or another doubt; inactive means no such curve, though single readings can be large; an effect the other way counts as inactive or inconclusive.
Experiments:
[1] = AP1 Signaling Pathway (AID 357; active means well fitted curve in either direction with a large enough effect, not every such curve was filed as active; inconclusive means small, poorly fitted or top-dose-only effect, or another doubt;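 further: ME-180 reporter cells stimulated with EGF at its EC50 level; top concentration of the series differs between compounds; on the % scale 0 is the no-effect control and ±100 the full control effect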); conditions: ME-180 AP-1-bla reporter, EGF-induced, beta-lactamase ratio, 5 h; at 38 µM (top of the series)
Procedure, shortened: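 In this screen, ME-180 cells in Opti-MEM with 0.5% dialyzed FBS received EC50 EGF and compound titrations for 5 h. AP-1 reporter beta-lactamase was detected via CCF4 ratio, giving AC50 for positive and negative modulators.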

[2] = Stat Signaling Pathway (AID 446; active means well fitted curve in either direction with a large enough effect, not every such curve was filed as active; inconclusive means small, poorly fitted or top-dose-only effect, or another doubt;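 further: ME-180 cervical cancer cells given 40 pM IL-6 alongside compound; SIE-controlled beta-lactamase reporter measured as 460/530 nm FRET emission ratio; top concentration of the series differs between compounds; on the % scale 0 is the no-effect control and ±100 the full control effect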); conditions: ME-180 (cervical carcinoma) SIE beta-lactamase reporter, IL-6 stimulated, 5 h; at 38 µM (top of the series)
Procedure, shortened: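 FRET read-out (405 nm excitation, 460/530 nm emission) of a beta-lactamase reporter under a STAT-inducible element in ME-180 cervical carcinoma cells. Cells with compound receive 40 pM IL-6 for 5 h. Values are normalised to AC90 stimulation and AC90 JAK-inhibitor controls.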

[3] = molecular target: 3',5'-cyclic-AMP phosphodiesterase 4B (Homo sapiens) (UniProt Q07343); experiment: qHTS Assay for Inhibitors of PDE-IV (AID 607; active means well fitted activation curve with a large enough effect in the main read-out, with a control signal flat, not every such curve was filed as active; inconclusive means small, poorly fitted or top-dose-only effect, or effect the other way, or a change in a side signal; further: potency means the concentration at half of the fitted maximal effect); conditions: HEK293 ACTOne CNG channel cells, membrane potential fluorescence; activation (PDE inhibition): at 22.9 µM (top of the series)
UniProt Q07343, sequence (Q07343 whole entry, looked up): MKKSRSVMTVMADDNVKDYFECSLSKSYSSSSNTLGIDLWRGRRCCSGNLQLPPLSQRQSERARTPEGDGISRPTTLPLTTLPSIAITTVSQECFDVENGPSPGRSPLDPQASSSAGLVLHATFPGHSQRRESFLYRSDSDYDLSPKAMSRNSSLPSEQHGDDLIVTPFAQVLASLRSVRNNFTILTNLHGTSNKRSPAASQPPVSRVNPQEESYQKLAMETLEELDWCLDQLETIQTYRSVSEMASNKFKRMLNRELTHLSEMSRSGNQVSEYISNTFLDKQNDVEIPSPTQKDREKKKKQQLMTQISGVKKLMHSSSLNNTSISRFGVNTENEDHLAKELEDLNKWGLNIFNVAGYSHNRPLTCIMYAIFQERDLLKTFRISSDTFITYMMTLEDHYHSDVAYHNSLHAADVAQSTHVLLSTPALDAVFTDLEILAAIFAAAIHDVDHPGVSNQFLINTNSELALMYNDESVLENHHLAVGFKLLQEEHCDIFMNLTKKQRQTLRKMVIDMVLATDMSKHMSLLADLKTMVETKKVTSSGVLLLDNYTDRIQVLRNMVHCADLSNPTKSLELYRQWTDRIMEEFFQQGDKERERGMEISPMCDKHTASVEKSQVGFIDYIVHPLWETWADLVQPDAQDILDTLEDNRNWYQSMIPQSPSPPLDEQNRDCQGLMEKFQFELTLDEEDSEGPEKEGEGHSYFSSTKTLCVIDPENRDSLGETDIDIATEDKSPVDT
Procedure, shortened: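 Cell-based read-out of cAMP via a modified cyclic nucleotide-gated channel and membrane potential dye (535/590 nm) in HEK293 cells expressing PDE4 endogenously. Compounds tested up to 22.9 uM final; 100 uM RO 20-1724 reference.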

[4] = molecular target: Cytochrome P450 2C9 (Homo sapiens) (UniProt P11712); experiment: qHTS Assay for Inhibitors and Substrates of Cytochrome P450 2C9 (AID 883); conditions: recombinant CYP2C9, luciferin-H luminescence, 60 min; series mostly up to 57.1 µM; further: on the % scale 0 is the no-effect control and ±100 the full control effect; nearly all actives have a fitted effect of over 60% in size
UniProt P11712, sequence (P11712 whole entry, looked up): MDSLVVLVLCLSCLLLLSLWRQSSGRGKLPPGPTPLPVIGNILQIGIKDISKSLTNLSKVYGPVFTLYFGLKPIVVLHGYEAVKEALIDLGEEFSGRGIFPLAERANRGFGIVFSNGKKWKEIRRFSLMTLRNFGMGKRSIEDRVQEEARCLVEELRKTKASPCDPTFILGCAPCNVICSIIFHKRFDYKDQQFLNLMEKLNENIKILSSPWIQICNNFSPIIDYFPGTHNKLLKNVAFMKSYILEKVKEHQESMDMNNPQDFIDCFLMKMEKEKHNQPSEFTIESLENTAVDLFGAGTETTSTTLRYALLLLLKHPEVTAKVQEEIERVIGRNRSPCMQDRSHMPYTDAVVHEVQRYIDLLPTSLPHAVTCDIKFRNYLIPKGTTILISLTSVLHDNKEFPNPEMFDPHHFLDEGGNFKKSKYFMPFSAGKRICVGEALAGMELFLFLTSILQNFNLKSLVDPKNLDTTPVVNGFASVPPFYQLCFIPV
Procedure, shortened: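 Human CYP2C9 (10nM) with Luciferin-H at 100uM (its KM) in 25mM KPO4; compound preincubated 10 min at 37C, then NADPH regeneration for 60 min at 37C. Luciferin read by luminescence after detection reagent; normalized to 57uM sulphaphenazole as full inhibition.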

[5] = molecular target: Cytochrome P450 2D6 (Homo sapiens) (UniProt P10635); experiment: qHTS Assay for Inhibitors and Substrates of Cytochrome P450 2D6 (AID 891); conditions: recombinant CYP2D6, luciferin-ME EGE luminescence; activity change, negative = inhibition: at 57.1 µM (top of the series);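 further: luciferin methyl ether substrate demethylated by CYP2D6 with NADPH regeneration; top concentration of the series differs between compounds; on the % scale 0 is the no-effect control and ±100 the full control effect; nearly all actives have a fitted effect of over 60% in size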
UniProt P10635, sequence (P10635 whole entry, looked up): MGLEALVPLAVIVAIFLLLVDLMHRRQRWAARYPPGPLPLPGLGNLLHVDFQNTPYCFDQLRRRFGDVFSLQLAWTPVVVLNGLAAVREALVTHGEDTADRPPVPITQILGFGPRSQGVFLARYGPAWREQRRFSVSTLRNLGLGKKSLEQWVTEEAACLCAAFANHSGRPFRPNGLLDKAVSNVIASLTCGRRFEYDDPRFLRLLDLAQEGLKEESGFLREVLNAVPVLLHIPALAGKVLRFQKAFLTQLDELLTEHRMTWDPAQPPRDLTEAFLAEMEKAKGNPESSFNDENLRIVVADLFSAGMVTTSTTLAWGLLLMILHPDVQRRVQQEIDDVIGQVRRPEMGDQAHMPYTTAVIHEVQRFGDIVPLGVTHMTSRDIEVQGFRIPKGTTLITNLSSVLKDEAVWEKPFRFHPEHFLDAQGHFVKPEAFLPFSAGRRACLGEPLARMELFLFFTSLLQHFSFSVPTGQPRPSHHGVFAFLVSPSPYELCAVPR
Procedure, shortened: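 Luminescent read-out of luciferin formed by 5 nM human CYP2D6 demethylating 30 uM Luciferin-ME EGE (Km level) over 60 min at room temperature after NADPH regeneration addition. Data normalized to full inhibition by 1.43 uM quinidine.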

[6] = molecular target: Muscarinic acetylcholine receptor M1 (Rattus norvegicus) (UniProt P08482); experiment: qHTS Assay for Antagonists of Acetylcholine Muscarinic M1 Receptor: Measurement of IP-One Response (AID 944); conditions: CHO-M1 cells, IP-One HTRF, antagonist mode; series mostly up to 46.1 µM; further: nearly all actives have a fitted effect of over 75% in size
UniProt P08482, sequence (P08482 whole entry, looked up): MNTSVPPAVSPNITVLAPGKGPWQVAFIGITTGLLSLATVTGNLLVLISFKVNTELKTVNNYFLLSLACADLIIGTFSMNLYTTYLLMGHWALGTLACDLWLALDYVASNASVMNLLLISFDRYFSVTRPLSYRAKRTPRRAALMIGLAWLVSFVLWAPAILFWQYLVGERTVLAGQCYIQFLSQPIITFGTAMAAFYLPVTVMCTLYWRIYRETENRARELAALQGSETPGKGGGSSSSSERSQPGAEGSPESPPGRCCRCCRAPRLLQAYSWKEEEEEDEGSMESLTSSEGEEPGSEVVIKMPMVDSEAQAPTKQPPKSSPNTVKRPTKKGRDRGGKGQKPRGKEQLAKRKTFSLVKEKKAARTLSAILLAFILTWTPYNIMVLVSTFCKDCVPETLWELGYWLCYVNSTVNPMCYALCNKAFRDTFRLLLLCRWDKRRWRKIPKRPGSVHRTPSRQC

[7] = molecular target: Pyruvate kinase (Leishmania mexicana) (UniProt Q27686); experiment: qHTS Validation Assay for Inhibitors of Leishmania Mexicana Pyruvate Kinase (AID 945);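 further: 0% = DMSO only neutral control wells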; conditions: purified L. mexicana pyruvate kinase, enzyme activity, E451W mutant enzyme; at 57.5 µM (top of the series)
UniProt Q27686, sequence (Q27686 2-499 E452W): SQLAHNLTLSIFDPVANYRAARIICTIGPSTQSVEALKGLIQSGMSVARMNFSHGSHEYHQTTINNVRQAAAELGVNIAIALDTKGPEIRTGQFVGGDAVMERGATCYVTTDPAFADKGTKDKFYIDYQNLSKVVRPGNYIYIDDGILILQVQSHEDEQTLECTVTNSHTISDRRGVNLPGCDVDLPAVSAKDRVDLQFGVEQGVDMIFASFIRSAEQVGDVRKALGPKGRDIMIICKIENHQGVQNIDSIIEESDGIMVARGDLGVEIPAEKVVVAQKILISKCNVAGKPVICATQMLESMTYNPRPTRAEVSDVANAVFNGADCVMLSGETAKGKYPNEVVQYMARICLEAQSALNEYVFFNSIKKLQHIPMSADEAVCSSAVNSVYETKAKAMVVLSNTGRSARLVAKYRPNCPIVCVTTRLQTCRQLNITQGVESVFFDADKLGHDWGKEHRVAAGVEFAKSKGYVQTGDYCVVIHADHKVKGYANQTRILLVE
Procedure, shortened: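 Compounds are tested as eight-point concentration series. Reactions contain 0.2 nM LmPYK E451W, 0.5 mM PEP, 0.1 mM ADP, 7 mM MgCl2 and 50 mM KCl at pH 7.2, run 1 h at room temperature, then read by PKLight luminescence.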

[8] = qHTS Assay for Lipid Storage Modulators (AID 1519; calls by dose curve; further: on the % scale 0 is the no-effect control and ±100 the full control effect); conditions: Drosophila S3 cells, BODIPY lipid droplet/cell ratio, laser cytometry; at 57.5 µM (top of the series); cells loaded with oleic acid
Procedure, shortened: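 Cells seeded at 5,000 per well were treated with compounds over a concentration series and loaded with oleic acid (400 uM, as added). Lipid droplet fluorescence (488 nm excitation, 500-530 nm channel) was read by laser-scanning cytometry and normalized to 20 uM Triacsin C.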

[9] = molecular target: Endonuclease 4 (Escherichia coli (strain K12)) (UniProt P0A6C1); experiment: Counterscreen for APE1 Inhibitors: qHTS Validation Assay for Inhibitors of Endonuclease IV (AID 1708); further: on the % scale 0 is the no-effect control and ±100 the full control effect; conditions: E. coli endonuclease IV, DNA cleavage fluorescence; series mostly up to 57.1 µM
Procedure, shortened: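 Conditions: 2 nM enzyme, 50 nM TAMRA/BHQ-2 substrate, pH 7.5 Tris buffer with 2 mM MgCl2, RT. Compound preincubation 15 min; readout three fluorescence reads 60 s apart, third-minus-first.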

[10] = qHTS for differential inhibitors of proliferation of Plasmodium falciparum line D10 (AID 1877); conditions: series mostly up to 28.7 µM;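 further: parasites grown with compound for 72 h before DNA staining; plate controls were vehicle wells for no effect and reference inhibitor wells for full effect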
[11] = qHTS for differential inhibitors of proliferation of Plasmodium falciparum line Dd2 (AID 1882); conditions: Potency: Plasmodium falciparum Dd2 proliferation inhibition; series mostly up to 28.7 µM;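 further: plate controls were DMSO vehicle for no effect and 0.29 µM artemisinin for full effect; nearly all actives have a fitted effect of over 65% in size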
Procedure, shortened: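 SYBR Green DNA fluorescence (ex 485, em 535 nm) after overnight lysis quantifies parasite growth; compound exposure lasted 72 h at 37 C on infected red cells at 2.5% hematocrit, 0.3% parasitemia (final). Artemisinin 0.29 uM and vehicle wells define normalization.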

[12] = qHTS for differential inhibitors of proliferation of Plasmodium falciparum line HB3 (AID 1886); conditions: Potency: Plasmodium falciparum HB3 proliferation inhibition; series mostly up to 28.7 µM;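 further: parasites grown with compound for 72 h before SYBR Green readout; plate controls were vehicle for no effect and reference inhibitor for full effect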
[13] = High Content Imaging Cell-Based qHTS for Inhibitors of the mTORC1 Signaling Pathway in MEF (Tsc2-/-, p53-/-) Cells (AID 2666); conditions: series mostly up to 38.3 µM;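 further: percent of cells scored positive for phospho-rpS6 Ser235/236 immunostaining by imaging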
Procedure, shortened: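 MEF Tsc2-/- p53-/- (empty vector), DMEM/10% FBS; cpd 24 h 37 °C; PFA fix, Alexa-488 p-rpS6 S235/236 Ab, Hoechst; imaged; rapamycin-defined inhibition; % positive cells/well.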

[14] = qHTS of pediatric cancer cell lines to identify multiple opportunities for drug repurposing: Primary screen for LAN-5 cells (AID 1347100); conditions: LAN-5 neuroblastoma viability, CellTiter-Glo luminescence, 48 h; series mostly up to 46 µM;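 further: plate controls were DMSO neutral control for no effect and bortezomib positive control for full effect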
Procedure, shortened: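 Viability after 48 h compound treatment at 37C, 500-1,000 cells/well, read as ATP luminescence with CellTiter-Glo. Primary screens used 11-point (MIPE, 0.78 nM-46 µM) or 8-point (NPC, 0.59 nM-46 µM) final concentrations; follow-up screens used 11-point dilutions.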

[15] = qHTS of pediatric cancer cell lines to identify multiple opportunities for drug repurposing: Primary screen for OHS-50 cells (AID 1347103); conditions: OHS-50 osteosarcoma viability, CellTiter-Glo luminescence, 48 h; series mostly up to 57.3 µM;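 further: plate controls were DMSO neutral control for no effect and bortezomib positive control for full effect; nearly all actives have a fitted effect of over 40% in size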
Procedure, shortened: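 Cells (500-1,000/well) rested 5 h, then received compounds for 48 h; metabolically active cells were measured by CellTiter-Glo luminescence. Final concentrations spanned up to 46 µM (MIPE, 11-point) or 0.59 nM-46 µM (NPC, 8-point) in primary screens, 11-point in follow-ups.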

[16] = molecular target: Cytochrome P450 2C9 (Homo sapiens) (UniProt P11712); experiment: Cytochrome P450 family 2 subfamily C member 9 (CYP2C9) small molecule antagonists: luciferase biochemical (cell-free) qHTS assay (AID 1645842; active means well fitted curve in the direction sought with a large enough effect in the repeat runs; inconclusive means weak or mixed curves; inactive means no such curve, though single readings can be large; an effect the other way counts as inactive or inconclusive; further: on the % scale 0 is the no-effect control and ±100 the full control effect; nearly all actives have a fitted effect of over 55% in size); conditions: P450-Glo CYP2C9 enzyme assay, luciferin luminescence; series mostly up to 57.4 µM
Procedure, shortened: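 P450-Glo CYP2C9 system: proluciferin substrate with enzyme in mix containing 0.4% BSA, 10 min at room temperature, then NADPH regeneration solution added and incubated 1 h at 37C. Detection reagent stopped reaction; luminescence read after 20 min as RLU.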

[17] = Primary qHTS for inhibitors of nuclear receptor binding SET domain protein 2 (NSD2) in an RCH-ACV wild type WT cells (2C) (AID 1645877); conditions: RCH-ACV (leukaemia line) NSD2 WT (2C) viability, CellTiter-Glo, 72 h; activity change, negative = cell killing: at 44.9 µM (top of the series) unless noted; series mostly up to 44.9 µM; further: potency means the concentration at half of the fitted maximal effect; nearly all actives have a fitted effect of over 70% in size
[18] = molecular target: Cytochrome P450 2C19 (Homo sapiens) (UniProt P33261); experiment: qHTS for inhibitors of CYP2C19 against the NCATS DSHEA and TCM libraries (AID 1919974); conditions: CYP2C19 enzyme inhibition, luminescence qHTS;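 further: luminescence from luciferin released by CYP2C19 oxidation of a pro-luciferin substrate; potency means the concentration at half of the fitted maximal effect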
UniProt P33261, sequence (P33261 whole entry, looked up, canonical isoform): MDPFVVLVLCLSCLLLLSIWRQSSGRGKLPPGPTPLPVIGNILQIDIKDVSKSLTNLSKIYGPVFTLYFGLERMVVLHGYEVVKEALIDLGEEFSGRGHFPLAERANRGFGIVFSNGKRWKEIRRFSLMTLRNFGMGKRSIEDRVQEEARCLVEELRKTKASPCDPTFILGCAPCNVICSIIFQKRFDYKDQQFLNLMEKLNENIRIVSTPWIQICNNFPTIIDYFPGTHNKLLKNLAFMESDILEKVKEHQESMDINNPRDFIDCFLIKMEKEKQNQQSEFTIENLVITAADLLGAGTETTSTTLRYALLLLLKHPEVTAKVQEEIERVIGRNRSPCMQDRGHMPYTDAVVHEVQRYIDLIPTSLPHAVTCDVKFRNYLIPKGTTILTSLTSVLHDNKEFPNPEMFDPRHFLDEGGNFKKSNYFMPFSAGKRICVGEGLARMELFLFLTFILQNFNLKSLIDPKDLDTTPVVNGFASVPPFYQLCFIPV
Procedure, shortened: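 Each CYP isoform and its pro-luciferin substrate, at isoform-specific final concentrations, were preincubated 15 min at RT with substances. NADPH regeneration solution (1x) started a 30-45 min reaction, and P450-Glo luminescence was read.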

[19] = molecular target: Cytochrome P450 1A2 (Homo sapiens) (UniProt P05177); experiment: qHTS for inhibitors of CYPIA2 against the NCATS DSHEA and TCM libraries (AID 1919976); conditions: recombinant CYP1A2 enzyme activity, luminescence; series mostly up to 20.3 µM; further: potency means the concentration at half of the fitted maximal effect
UniProt P05177, sequence (P05177 whole entry, looked up): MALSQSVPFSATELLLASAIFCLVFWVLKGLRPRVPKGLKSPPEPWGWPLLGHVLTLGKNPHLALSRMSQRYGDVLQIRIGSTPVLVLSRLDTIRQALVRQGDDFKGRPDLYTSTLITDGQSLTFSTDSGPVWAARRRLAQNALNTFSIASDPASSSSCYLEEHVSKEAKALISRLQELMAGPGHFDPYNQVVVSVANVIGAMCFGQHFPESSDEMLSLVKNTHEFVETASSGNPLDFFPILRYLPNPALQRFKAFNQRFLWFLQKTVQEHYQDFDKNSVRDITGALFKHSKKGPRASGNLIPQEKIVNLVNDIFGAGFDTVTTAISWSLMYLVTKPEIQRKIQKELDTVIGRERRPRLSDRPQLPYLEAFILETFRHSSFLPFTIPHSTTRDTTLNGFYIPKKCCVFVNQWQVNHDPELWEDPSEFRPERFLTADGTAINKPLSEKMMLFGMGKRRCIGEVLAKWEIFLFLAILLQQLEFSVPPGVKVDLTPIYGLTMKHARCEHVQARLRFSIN
Procedure, shortened: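 Reaction started with 1x NADPH regeneration solution and run 30-45 min, room temperature, protected from light, after compounds sat 15 min with CYP1A2 and pro-luciferin substrate. P450-Glo detection gave luminescence; furafylline served as control.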

KB-3-1 = experiment: Cytotoxic Profiling of Annotated Libraries Using Quantitative High-Throughput Screening (AID 1296008); conditions: Five cell lines viability, CellTiter-Glo ATP luminescence, 48-72 h; max response: stronger effect = lower value; further: nearly all actives have a fitted effect of over 60% in size; further: potency means the concentration at half of the fitted maximal effect
Procedure, shortened: (§1)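 Cells exposed to compounds for 48 or 72 hr at 37 degrees Celsius. Viability read as ATP-coupled luminescence with CellTiter-Glo after 10 min at room temperature.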

NIH3T3 = experiment: as above; conditions: Five cell lines viability, CellTiter-Glo ATP luminescence, 48-72 h; max response: stronger effect = lower value
Procedure, shortened: as §1
Tags describe the fitted curve by direction and shape.

NC(N)=NCCC[C@H](N)C(=O)O
inconclusive: activity, negative = inhibition [2] 37.9% [activator] | Potency [3] 19 µM [inhibitor, single point] | activity change, negative = inhibition [8] 0.11% | Potency [17] 0.531 µM [inhibitor, single point] | Potency [18] 4.47 µM [inhibitor, full curve] | Potency [19] 11.2 µM [inhibitor, partial curve, poor fit] | Potency (KB-3-1) 23.1 µM [inhibitor, partial curve, poor fit]
inactive: activity change, negative = inhibition [1] -0.498% | Potency [4] | Potency [5] | Potency [6] | activity change, negative = inhibition [7] -8.43% | Potency [9] | Potency [10] | Potency [11] | Potency [12] | Potency [13] | activity change, negative = cytotoxic [14] 8.53% [at 4.84 µM] | activity change, negative = cytotoxic [15] -1.99% [at 6.18 µM] | activity change, negative = inhibition [16] -6.78% [at 4.83 µM] | outcome (NIH3T3)
